# From PubChem BioAssay AID686970 (National Center for Advancing Translational Sciences (NCATS), 2013)
# Among all 360,000 compounds or so, about 6,000 (1.7%) were called active. Inconclusive means that the source gave no clear call. Such entries were picked first, then a sample of the others. Calls come from the whole dose curve; as a rule, active = well fitted cell-killing curve with a large enough effect; inconclusive = small, poorly fitted or top-dose-only effect, or effect the other way; inactive = flat fitted curve, though single readings scatter. Potencies of inconclusive entries are left out as doubtful fits.
# Experiment: qHTS for induction of synthetic lethality in tumor cells producing 2HG: qHTS for the HT-1080-NT fibrosarcoma cell line;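 note: NT is the 2HG producing partner of a matched IDH1 knockdown line; nearly all actives have a fitted effect of over 55% in size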;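 for activity, negative = less viability: 0% = DMSO-treated cells and -100% = media-only wells without cells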
# Conditions: HT-1080-NT fibrosarcoma viability, CellTiter-Glo ATP luminescence, 48 h; activity, negative = less viability: at 46.1 µM (top of the series) unless noted
# Procedure, shortened: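 HT-1080-NT fibrosarcoma cells (2HG-overproducing), 750 cells/well in RPMI with 5% FBS, dosed after 2 h and incubated 48 h at 37C. CellTiter-Glo luminescence normalized to DMSO and no-cell wells; concentration-response curves fitted and classed.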
# Potency is the fitted concentration of half-maximal effect; tags give direction and shape of the fitted curve.
SMILES,Potency,"activity, negative = less viability"
COc1cccc(-c2cc(C(=O)Nc3cc(OC)c(OC)c(OC)c3)no2)c1,"inconclusive [cytotoxic, single point]",
COc1cc(CC(=O)NCCc2ccc(OCc3ccccc3)cc2)c([N+](=O)[O-])cc1OC,"inconclusive [cytotoxic, single point]",
COc1ccccc1CC(=O)Nc1ccc([N+](=O)[O-])cc1O,"inconclusive [cytotoxic, single point]",
Cc1ccc2c(c1)N(S(=O)(=O)c1cc(-c3onc(C)c3C)ccc1C)CCO2,"inconclusive [cytotoxic, single point]",
O=C(CNc1cccc([N+](=O)[O-])c1)N/N=C/c1ccc([N+](=O)[O-])o1,"inconclusive [cytotoxic, partial curve, poor fit]",
COc1cccc(C(C)(O)c2nc(-c3ccc4ccccc4c3)cs2)c1 (centres undefined),"inconclusive [cytotoxic, single point]",
Cc1cc(C)cc(NC(=O)[C@@H](NC(=O)c2ccco2)C(C)C)c1,,inactive: 17.1%
COc1cc(C(=O)NCC(=O)N/N=C/c2cccc(OC(=O)c3ccco3)c2)cc(OC)c1OC,"inconclusive [cytotoxic, single point]",
CC(=O)c1cccc(NS(=O)(=O)c2ccc3c(c2)oc(=O)n3C)c1,,inconclusive: -24.4% [cytotoxic]
C/C(=N\NC(=O)c1ccccc1)c1ccccc1Br,"inconclusive [cytotoxic, single point]",
CC(=O)N1CCN(Cc2nc3cc(NC(=O)c4cccc(Br)c4)ccc3n2C)CC1,"inconclusive [cytotoxic, single point]",
CCN(CC)S(=O)(=O)c1ccc(NC(=O)c2ccc(N3CCCC3=O)cc2)cc1,"inconclusive [cytotoxic, single point]",
CCc1ccc(NC(=O)C2=CC(c3ccc(OC)c(OC)c3)=NS(=O)(=O)N2C)cc1,"inconclusive [cytotoxic, single point]",
Cc1ccccc1-n1ncc2c([N+](=O)[O-])cc([N+](=O)[O-])cc21,"inconclusive [cytotoxic, partial curve]",
CCN1CCc2nc3sc(C(=O)N4CCc5ccccc5C4)c(N)c3cc2C1,"inconclusive [cytotoxic, partial curve, poor fit]",
Cc1cccc(N2CCN(C(=O)c3cc(S(=O)(=O)N4CCCC4)cn3C)CC2)c1C,"inconclusive [cytotoxic, partial curve]",
CN(C(=O)COC(=O)c1c2c(nc3ccccc13)/C(=C/c1cccc([N+](=O)[O-])c1)CCC2)C1CCS(=O)(=O)C1 (centres undefined),"inconclusive [cytotoxic, partial curve]",
O=C1N/C(=C/c2ccc(Br)cc2)C(O)=C1C=NCc1ccccc1,"inconclusive [cytotoxic, full curve, poor fit]",
CN(C)c1ccc(C(C(=O)NC2CCCC2)N(C(=O)c2csnn2)C2CC2)cc1 (centres undefined),,inactive: 1.21%
COc1ccc(CC(N)c2csc(NC(=O)Nc3ccc(C(C)C)cc3)n2)cc1 (centres undefined),active: 18.4 µM,
COc1ccc(-c2ccoc2)cc1[C@H]1[C@H]2C=CC[C@@H](C)[C@@H]2C(=O)N1Cc1ccccc1,"inconclusive [cytotoxic, single point]",
COc1ccc(CN2CCCCC2C(=O)Nc2ccc(OC)c(OCC(C)C)c2)cc1OC (centres undefined),"inconclusive [cytotoxic, full curve, poor fit]",

SMILES,Potency,"activity, negative = less viability"
COc1ccc(-c2nc(NCCN(C)C)nc3ccsc23)c(C)c1,"inconclusive [cytotoxic, single point]",
Cn1c(=O)c2c(nc(SCc3nn[nH]n3)n2Cc2ccccc2F)n(C)c1=O,,inactive: 8.01%
COc1ccc(C(N)c2csc(NC(=O)Nc3ccccc3C(C)(C)C)n2)cc1 (centres undefined),"inconclusive [cytotoxic, single point]",
COc1cccc(N2CCc3c(C)nc4ccc(Cl)cc4c32)c1,"inconclusive [cytotoxic, single point]",
CCOC(=O)C1=CCN(S(=O)(=O)c2ccc(F)cc2)C1c1ccc(Cl)c(Cl)c1 (centres undefined),"inconclusive [cytotoxic, single point]",
COc1cccc(CN2CCN(C(=O)c3cccc(OC)c3)CC2)c1,,inactive: 11%
Cc1cc(N=NC(=O)c2ccccc2O)c2ccccc2c1O,"inconclusive [cytotoxic, single point]",
CCC(C)n1ncn(-c2ccc(N3CCN(c4ccc(OCC5COC(Cn6cncn6)(c6ccc(Cl)cc6Cl)O5)cc4)CC3)cc2)c1=O (centres undefined),"inconclusive [cytotoxic, single point]",
CCOC(=O)C1(CCCc2ccccc2)CCN(C(=O)c2cc(C)nn2CC)CC1,"inconclusive [cytotoxic, single point]",
CCN1CCN(Cc2ccc(NC(=O)Nc3ccc(SC)cc3)cc2)CC1,"inconclusive [cytotoxic, single point]",
COc1cccc(-c2nnc(SCC(=O)N3CCCc4ccccc43)o2)c1,,inactive: -9.46%
Cc1ccc(S(=O)(=O)Nc2c(NC3CCCCC3)c3ccccc3oc2=O)c(C)c1,"inconclusive [cytotoxic, single point]",
O=C(/C=C\Nc1ccc2c(c1)OCO2)c1cccs1,"inconclusive [cytotoxic, partial curve, poor fit]",
O=C1C(Cl)=C(Nc2ccc3cn[nH]c3c2)C(=O)c2ccccc21,"inconclusive [cytotoxic, partial curve, poor fit]",
Nc1[nH]nc2ncc3cc4ccccc4nc3c12,"inconclusive [cytotoxic, single point]",
CC1CCCC(C)N1C(=O)Cn1cc(/C=C2/C(=O)Nc3ccccc32)c2ccccc21 (centres undefined),"inconclusive [cytotoxic, partial curve]",
CCCCNc1nc(=S)n(-c2ccccc2)c(C)c1C(C)=O,"inconclusive [cytotoxic, single point]",
CCOC1=C2[C@@H](CN(S(=O)(=O)c3ccc(C)cc3)[C@H]2c2cccc3ccccc23)[C@H]2C(=O)N(c3ccccc3)C(=O)[C@H]2C1,"inconclusive [rising, partial curve]",
Cc1cc(C)n(-c2ccc(C(=O)N3CCN(S(=O)(=O)c4ccc(OC(F)(F)F)cc4)CC3)cc2)n1,,inactive: 2.77%
CCOC(=O)C1CCCN(c2nc3ccccc3nc2C(C#N)C(=O)OCCOC)C1 (centres undefined),,inactive: -5.5%
COc1ccc(/C=C(\C#N)C(=O)Nc2cccnc2)cc1,"inconclusive [rising, partial curve]",
CC(OC(=O)CSc1ccc([N+](=O)[O-])cc1)C(=O)NC1CC1 (centres undefined),,inactive: -1.25%

SMILES,Potency,"activity, negative = less viability"
CCCCc1ccc(S(=O)(=O)N/N=C(/C)c2ccncc2)cc1,"inconclusive [cytotoxic, single point]",
Cc1ccc(CC2(C)C(=O)Nc3ccc(OC(F)(F)F)cc32)cc1 (centres undefined),"inconclusive [cytotoxic, single point]",
CCCCOCCCNC(=O)C[C@@H]1C[C@@]2(C(=O)OCC)CCCC=C2N(Cc2ccc(Cl)cc2Cl)C1=O,"inconclusive [cytotoxic, single point]",
CC(C)Cc1ccc(-c2cc3nc(NCC4CC4)ccn3n2)cc1,"inconclusive [cytotoxic, single point]",
Cc1ccc(-n2nc(C)c(C(C)(O)C(F)(F)F)c2N)cc1 (centres undefined),"inconclusive [rising, single point]",
CCOc1ccc2nc(NC(=S)NCc3ccccc3)sc2c1,"inconclusive [cytotoxic, full curve]",
Cc1ccc(/C(=N/Nc2ncnc3ccccc23)C(=O)O)cc1,"inconclusive [cytotoxic, single point]",
Brc1ccccc1/C=N/Nc1ccc2ccccc2n1,"inconclusive [cytotoxic, single point]",
Cc1cc(NC(=O)c2ccccc2)ncc1NC(=O)c1ccco1,"inconclusive [cytotoxic, single point]",
COc1ccc(C2C(C(=O)NC(C)C)c3ccccc3C(=O)N2C)cc1OC (centres undefined),,inactive: 11%
Cc1ccc(C2(c3ccc(C)cc3)CC2C(=O)Nc2ccc([N+](=O)[O-])cc2O)cc1 (centres undefined),active: 20.6 µM,
COC(=O)c1[nH]c2ccc(Br)cc2c1NC(=O)CN1CCN(C2CCCCC2)CC1,active: 23.1 µM,
CCCC(=O)Nc1ccc(C(=O)COC(=O)c2c(C)noc2C)cc1,,inactive: -4.88%
CC(=O)c1ccc(-n2nncc2C(C)(C)C)cc1,"inconclusive [cytotoxic, partial curve]",
CCOc1ccc2nc(NCCNC(=O)Nc3ccccc3)c(C#N)cc2c1,"inconclusive [cytotoxic, single point]",
COc1ccc(NC(=O)CCc2ccccc2)cc1S(=O)(=O)N1CCCCC1,,inactive: -1.56%
COc1cccc(N2CCN(C(=O)c3cn(Cc4ccccc4)nc3-c3cccnc3)CC2)c1,active: 5.8 µM,
O=C(CSc1nnc(-c2c[nH]c3ccccc23)o1)N1c2ccccc2CCc2ccccc21,"inconclusive [cytotoxic, single point]",
COc1cc(OC)cc(C2=Cc3ccccc3C(CC(C)=O)N2c2ccc(C#CC3(O)CCCCC3)cc2)c1 (centres undefined),,inactive: -29.3%
COc1ccc(C(N)c2csc(Nc3ccc(C(F)(F)F)cn3)n2)cc1 (centres undefined),"inconclusive [cytotoxic, single point]",
